Here are results for one compound from patent publication US7915263B2, “Aminopyridine derivatives having aurora A selective inhibitory action” (Banyu Pharmaceutical Co., Ltd., priority 2006, dated 2011).

Each structure is given as a SMILES string. A number of entries come with more than one value. This list holds those alone. An entry can have further records. Results that share an entry appear to be repeats (runs, samples, wells or individuals); one of them may be the mean.

The subject of this assay is Human cervical cancer cells (HeLa S3). The assay can be described thus: Effect by combined use of drugs in cells (docetaxel), WST-8 method. Particulars: docetaxel 0.3 nM alone, HeLa S3, three days. In kind it is cell-based. On the procedure:
Fetal calf serum (FCS) was purchased from Moregate Biotech, DMEM medium from Invitrogen Corp., docetaxel (tradename: Taxere) from Sigma-Aldrich, Inc., and WST-8 from Kishida Chemical Co., Ltd.
Human cervical cancer cells (HeLa S3) were obtained from the American Type Culture Collection (ATCC).
Cells were suspended in a DMEM medium containing 10% FCS, and the cell suspension was dispensed to two 96-well plastic plates at a rate of 750 cells/100 microliters per well. The plates were incubated overnight in 5% CO2-95% air at 37° C. A drug was subjected to graded dilution in dimethylsulfoxide and further diluted with DMSO or with a DMEM medium containing 10% FCS and also containing 0.6 nM docetaxel. […] Cell growth after incubation was measured by the WST-8 method (H. Tominaga, et al., Anal. Commun., 36, 47-50 (1999)). Here, the WST-8 method refers to a method in which 20 microliters of a WST-8 reagent solution is added to each well, incubation is conducted at 37° C. for 60 minutes, the plate is stirred, and the amount of formazan produced is measured by a colorimetric method to determine the inhibitory rate of the drug. The growth inhibitory effects of docetaxel and of the compound according to the invention were determined, with the value obtained in sole treatment of DMSO being defined as 0%.
Background: Formazan colour is commonly taken as a measure of viable cells.

For `CC(=O)O[C@@]12CO[C@@H]1C[C@H](O)[C@@]1(C)C(=O)[C@H](O)C3=C(C)[C@@H](OC(=O)[C@H](O)[C@@H](NC(=O)OC(C)(C)C)c4ccccc4)C[C@@](O)([C@@H](OC(=O)c4ccccc4)[C@H]21)C3(C)C` [docetaxel, reference compound], the “Cell growth inhibitory effect by sole administration of docetaxel (0.3 nM) (%)” value is 53.4, 52.1, 49.6, 48.9% [lines of one column].
